Where two headings read alike, the source gives them in different places. Some values that stand alone complete this part of the results.
- melting point (prepared by General Method A): 175 to 179 °C
- melting point (prepared by General Method E): 215 to 217 °C
Structure (SMILES): COc1c(N2CC[C@H]([C@@H](C)N)C2)c(F)cc2c(=O)n(N)c(=O)n(C3CC3)c12.Cl [Compound 36]

Source: patent publication US7582627B2, “3-aminoquinazolin-2,4-dione antibacterial agents” (Warner-Lambert Company, priority 2000, dated 2009)
